Assay results taken from publication PMC10725471, “Chemical modulation of cytosolic BAX homodimer potentiates BAX activation and apoptosis” (Nature Communications, 2023).

Target: human BAX P168G in HCT116 BAX KO cells (human) (UniProt Q07812)
Assay: SEC; cytosolic fraction of HCT116 BAX KO cells reconstituted with BAX WT, P168G or E75K, untreated; Superdex 200 10/300 GL in IBc buffer, 4 °C; fractions blotted for BAX

human BAX P168G in HCT116 BAX KO cells (a stretch of the chain, sequence left out) (natural protein; other documents disagree on this pair)
stoichiometry N: 2
